The campaign covered roughly 390,000 compounds. About 17,000 (4.4%) were called active. Inconclusive means that the source gave no clear call. Such entries were picked first, then a sample of the others. Calls come from the whole dose curve; as a rule, active = well fitted inhibition curve with a large enough effect; inconclusive = small, poorly fitted or top-dose-only effect; inactive = no such curve, though single readings can be large or run the other way. Potencies of inconclusive entries are doubtful fits and often do not repeat.
Target: Lysine-specific demethylase 4A (Homo sapiens) (UniProt O75164)
Sequence of UniProt O75164 (O75164 whole entry, looked up, the tested form may be a part): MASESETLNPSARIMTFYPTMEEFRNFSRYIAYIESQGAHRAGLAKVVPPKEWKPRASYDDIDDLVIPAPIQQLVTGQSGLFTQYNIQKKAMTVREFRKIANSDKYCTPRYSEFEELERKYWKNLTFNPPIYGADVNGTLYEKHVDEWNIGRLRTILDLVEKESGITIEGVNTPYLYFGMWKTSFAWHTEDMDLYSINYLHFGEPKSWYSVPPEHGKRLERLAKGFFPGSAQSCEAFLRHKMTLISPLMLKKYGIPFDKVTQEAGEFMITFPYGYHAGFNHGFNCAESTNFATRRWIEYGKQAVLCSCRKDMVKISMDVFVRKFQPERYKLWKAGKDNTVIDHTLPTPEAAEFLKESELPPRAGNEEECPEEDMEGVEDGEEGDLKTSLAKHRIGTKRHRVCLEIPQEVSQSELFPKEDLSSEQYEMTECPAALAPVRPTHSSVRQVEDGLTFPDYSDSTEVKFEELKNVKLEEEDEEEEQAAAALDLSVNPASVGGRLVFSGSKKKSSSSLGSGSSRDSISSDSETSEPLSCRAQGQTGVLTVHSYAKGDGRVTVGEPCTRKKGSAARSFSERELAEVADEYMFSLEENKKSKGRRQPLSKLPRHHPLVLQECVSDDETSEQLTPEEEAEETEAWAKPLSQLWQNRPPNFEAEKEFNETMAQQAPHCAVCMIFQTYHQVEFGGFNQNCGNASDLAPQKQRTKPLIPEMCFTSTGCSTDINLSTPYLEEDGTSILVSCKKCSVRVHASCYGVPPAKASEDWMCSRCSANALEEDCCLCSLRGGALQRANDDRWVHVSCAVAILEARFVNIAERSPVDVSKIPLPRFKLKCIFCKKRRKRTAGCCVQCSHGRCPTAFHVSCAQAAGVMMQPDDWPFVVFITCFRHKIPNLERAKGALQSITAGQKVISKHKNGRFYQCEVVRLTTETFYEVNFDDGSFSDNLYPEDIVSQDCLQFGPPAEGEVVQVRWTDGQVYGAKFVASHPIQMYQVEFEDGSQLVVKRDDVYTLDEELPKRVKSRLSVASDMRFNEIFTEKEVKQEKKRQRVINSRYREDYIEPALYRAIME
Test: qHTS Assay for Inhibitors of JMJD2A-Tudor Domain; note: nearly all actives have a fitted effect of over 50% in size
Details: AlphaScreen JMJD2A-Tudor / H3K4me3 peptide binding; activity change, negative = inhibition: at 114 µM (top of the series)
% is set by controls: 0 for no effect and ±100 for the full control effect; potency is the fitted concentration of half-maximal effect; tags give direction and shape of the fitted curve.

Potency, active:
CCN(CCCNC(=O)CN1N=C(c2ccc(C)cc2)CCC1=O)c1ccccc1 56.2 µM
Cc1ccc(C(OCC(C)(C)C[N+](C)(C)C)c2ccccc2)cc1 (centres undefined) 22.4 µM
CCOC(=O)C1=C(O)/C(=C\c2ccc(CNS(=O)(=O)c3ccc(Br)cc3)o2)N=C1C 56.2 µM
CC1=C(C(=O)Nc2ccccc2C)C(c2ccc[nH]2)n2ncnc2N1 (centres undefined) 56.2 µM
COc1ccc(N2CCN(C(=O)c3cccnc3SCc3cccc(Br)c3)CC2)cc1 22.4 µM
O=C1c2cccc(Sc3ccccc3)c2C(=O)c2c(Sc3ccccc3)cccc21 3.16 µM
COc1cc(/C=N/Nc2ccccc2C(F)(F)F)ccc1O 56.2 µM
O=C(Nc1cccc(C(=O)N2CCOCC2)c1)c1ncn[nH]1 28.2 µM
CCn1cnc2cc(NCc3ccc(N(C)C)cc3)ccc21 10 µM
C=CCn1c(O)c(C2=c3ccccc3=NC2=O)c2ccccc21 10 µM
CCOC(=O)N1CCN(Cc2cc(Cl)c3cccnc3c2O)CC1 22.4 µM
CN(C)C(=O)c1ccc(NC(=O)c2cc(-c3ccco3)nc3ccccc23)cc1 39.8 µM

Potency, inconclusive:
Cc1cccc(N2CCN(C(=O)C3CCC(=O)N(C4CC4)C3)CC2)c1C (centres undefined) 12.6 µM [inhibitor, partial curve, poor fit]
CC1(C)C(=O)Nc2ccccc2N1C(=O)COC(=O)c1cccc(O)c1 25.1 µM [inhibitor, partial curve]
CC(C)Oc1cccc(C(=O)C2CCCN(Cc3cnc(N4CCCC4)s3)C2)c1 (centres undefined) 35.5 µM [inhibitor, partial curve, poor fit]
COc1cc(NS(=O)(=O)c2ccc(Nc3nc(-c4ccccc4)cs3)cc2)nc(OC)n1 56.2 µM [inhibitor, partial curve]
CCOc1ccc(C2c3[nH]c4ccccc4c3CCN2C(=O)CCC2CCCC2)cc1 (centres undefined) 50.1 µM [inhibitor, partial curve]
Cc1ccc2nc(-c3ccccn3)cc(C(=O)NCCc3ccc(F)cc3)c2c1 31.6 µM [inhibitor, single point]
CCCC1=Nc2cc(C(=O)NCCN3CCCC3)ccc2Sc2ccccc21 50.1 µM [inhibitor, partial curve, poor fit]
O=C1N/C(=C\c2ccsc2)C(=O)N1Cc1ccc(F)cc1 56.2 µM [inhibitor, partial curve]
O=C(COc1cccc2ccccc12)N/N=C/c1ccccc1OCc1ccc(C(=O)O)cc1 56.2 µM [inhibitor, partial curve]
CCn1c(SCC(=O)Nc2ccc(C)cc2)nnc1-c1ccccn1 39.8 µM [inhibitor, partial curve]
COc1cccc(C2c3[nH]c4ccccc4c3CCN2C(=O)c2ccccc2F)c1OC (centres undefined) 35.5 µM [inhibitor, partial curve]
COc1ccccc1NC(=O)Cc1nc(CCl)cs1 70.8 µM [inhibitor, single point]
CCOC(=O)Cc1c[nH]c(=S)[nH]c1=O 39.8 µM [inhibitor, single point]
O=C(c1ccc(Cl)c(S(=O)(=O)N2CCCC2)c1)N1CCN(c2ccc(F)cc2)CC1 79.4 µM [inhibitor, partial curve]
Cc1cc(C(=O)CN2C(=O)NC(Cc3c[nH]c4ccccc34)C2=O)c(C)n1C (centres undefined) 56.2 µM [inhibitor, partial curve]
CCOC(=O)C1(Cc2ccc(OC)cc2)CCN(C(=O)c2ccc3[nH]ccc3c2)CC1 89.1 µM [inhibitor, partial curve]
COc1ccc(C(=O)c2no[n+]([O-])c2C(=O)c2ccc(OC)cc2)cc1 50.1 µM [inhibitor, partial curve]
COc1nc(N2CCCC2)nc(-n2nnc(C(C)=O)c2C)n1 89.1 µM [inhibitor, single point]
CCN1CCN(c2ccc(S(=O)(=O)N3CCCCC3)cc2NC(=O)c2ccc([N+](=O)[O-])o2)CC1 56.2 µM [inhibitor, partial curve]
COc1ccc(/C=C2/SC(=S)N(CCCC(=O)N3CCN(C)CC3)C2=O)cc1 44.7 µM [inhibitor, partial curve]
O=C(/C=C/c1ccc(O)c([N+](=O)[O-])c1)c1ccc2ccccc2c1 7.94 µM [inhibitor, full curve]
O=C(NC(=S)Nc1ccc(N2CCOCC2)cc1)c1ccccc1 50.1 µM [inhibitor, partial curve]
COC(=O)c1ccc(SC2CCCCC2)c([N+](=O)[O-])c1 44.7 µM [inhibitor, partial curve]
O=C(NC(=S)Nc1ccc(N2CCOCC2)c(Cl)c1)c1cncc(Br)c1 70.8 µM [inhibitor, single point]
COc1ccc(NC(=O)C(CCCCNC(=O)OC(C)(C)C)NC(=O)OCc2ccccc2)cc1 (centres undefined) 70.8 µM [inhibitor, single point]
Clc1cccc(/C(Cc2nc3ccccc3[nH]2)=N\Nc2ccccc2)c1 79.4 µM [inhibitor, single point]
CCOC(=O)C(CCSC)Nc1nc(Cl)nc(Nc2ccc(Cl)cc2)n1 (centres undefined) 79.4 µM [inhibitor, partial curve]
C=CCn1c(CCC(=O)O)ccc1-c1ccc(OC)cc1 50.1 µM [inhibitor, partial curve]
CSCCC1NC2(C(=O)Nc3c(Cl)cccc32)[C@@H]2C(=O)N(C3CCCC3)C(=O)[C@H]12 (some centres undefined) 79.4 µM [inhibitor, partial curve]
O=C(O)c1cccc(CSc2nc(-c3ccc(Cl)cc3)cc(C(F)(F)F)n2)c1 100 µM [inhibitor, single point]
O=C(c1ccc2c3c(cccc13)CC2)C1CCCN(C(=O)c2ccc(=O)[nH]c2)C1 (centres undefined) 89.1 µM [inhibitor, partial curve]
COc1ccc(C2c3c(n(Cc4ccccc4)cnc3=N)Oc3ccc4ccccc4c32)cc1OC (centres undefined) 56.2 µM [inhibitor, partial curve]
O=C(c1ccc2c3c(cccc13)CC2)C1CCCN(Cc2cccnc2)C1 (centres undefined) 50.1 µM [inhibitor, partial curve]
Cc1cccc(Cc2c(C)nc3c(C(=O)N4CCN(Cc5ccc6c(c5)OCO6)CC4)cnn3c2C)c1 50.1 µM [inhibitor, partial curve]
CC(C)CC(=O)NC(=S)Nc1cccc(NC(=O)c2ccccc2Cl)c1 63.1 µM [inhibitor, partial curve, poor fit]
COc1cccc(/C=N/NC(=O)c2[nH]nc3c2CCc2ccccc2-3)c1O 89.1 µM [inhibitor, partial curve]
COc1ccc2c(c1)N(C[C@H](C)CN(C)C)c1ccccc1S2 50.1 µM [inhibitor, partial curve]
Cc1[nH]n(C(N)=S)c(=O)c1N=Nc1ccc([N+](=O)[O-])cc1Cl 89.1 µM [inhibitor, single point]
Cc1ccc(N=Nc2c(N)[nH]n3c(=O)cc(-c4ccccc4)nc23)cc1 44.7 µM [inhibitor, partial curve]
O=C(Nc1cccc(-c2nc3ccccc3[nH]2)c1)c1cccc(NC(=O)c2ccco2)c1 56.2 µM [inhibitor, partial curve]

Potency, inactive:
COCCNC(=O)/C(C#N)=C/c1cc(Br)c(O)c(OC)c1
COCCN1C(=O)c2ccc(C(=O)Nc3cccnc3)cc2C1=O
COc1ccc(C(C)=O)c(OC(=O)c2ccc(OC)c(OC)c2)c1
CC1CCCN(C(=O)NC2CC(=O)N(c3ccc4c(c3)OCCO4)C2)C1 (centres undefined)
CC(C)(C)c1ccc(OC(=O)Nc2ccc(O)c(C(=O)O)c2)cc1
Cc1c(C(=O)O)oc2ccc(S(=O)(=O)N3CC(C)CC(C)C3)cc12 (centres undefined)
CCC(=O)Nc1nnc(S(=O)(=O)N(CC(C)C)c2ccccc2)s1
CC1=C(C)NC(=S)SC1
Cc1ccc2c(c1)-c1onc(C(=O)N(C)c3ccc(F)cc3)c1CO2
COc1cccc([C@@H]2CC=C(C(=O)O)[C@H](c3ccc(Br)cc3)N2S(=O)(=O)c2ccc(C)cc2)c1
O=C(NCC(=O)N(c1ccccc1)C(C(=O)NC1CCCCC1)c1cccnc1)c1ccco1 (centres undefined)
C=CCn1c(SCC(=O)N2c3ccccc3Sc3ccccc32)nnc1-c1ccco1
COC(=O)[C@]1(C)N[C@H](CN(C)C(=O)C2CCCCC2)[C@@H]2C(=O)N(C)C(=O)[C@@H]21
CCN1C[C@@H]2[C@@H]3C(=O)N(C)C(=O)[C@@H]3[C@](C)(C(=O)OC)N2C1=NC
COc1ccc(C(C)=O)cc1COC(=O)c1cccnc1SC
CCOC(=O)C1=C(COC(=O)Cc2c(F)cccc2Cl)NC(=O)NC1C (centres undefined)

Activity change, negative = inhibition, inconclusive:
Nc1nccnc1C(=O)OCC(=O)Nc1ccc2[nH]c(=O)[nH]c2c1 -66.2% [inhibitor]

Source: PubChem BioAssay AID504339 (National Center for Advancing Translational Sciences (NCATS), 2011)
